Experimental data: a compilation of properties of binary mixtures (doi:10.1007/s10953-016-0490-x)
The densities may have been worked out from excess volumes.

Test: xn = mol fraction of the nth substance listed
Conditions: 100 kPa

CCOC(C)=O + CCCC[n+]1ccn(C)c1.O=S(=O)([O-])C(F)(F)F
x2 = 0
Conditions | mass density [kg/m3]
303.15 K | 888.4
308.15 K | 882.2
313.15 K | 876
318.15 K | 869.7
323.15 K | 863.4

CCCC[n+]1ccn(C)c1.O=S(=O)([O-])C(F)(F)F + CCOC(C)=O
mass density [kg/m3]
Conditions | x1 = 0.0991 | x1 = 0.1916 | x1 = 0.3056 | x1 = 0.3978 | x1 = 0.5067 | x1 = 0.6095 | x1 = 0.7138 | x1 = 0.7987 | x1 = 0.8932 | x1 = 1
298.15 K | 981.2 | 1046.3 | 1110 | 1151.4 | 1188.8 | – | 1244.8 | 1262.9 | – | 1297.5
303.15 K | 975.6 | 1041.4 | 1105.2 | – | 1184.6 | 1214.6 | 1240.6 | 1258.7 | 1276 | –
308.15 K | 970 | 1036.4 | 1100.4 | 1142.1 | 1180 | 1210.2 | 1236.2 | 1254.5 | 1271.9 | 1289.5
313.15 K | – | 1031.5 | 1095.6 | 1137.4 | 1175.5 | 1205.7 | 1232.1 | 1250.2 | 1267.7 | –
318.15 K | 958.5 | – | 1090.7 | 1132.7 | 1170.9 | 1201.2 | 1227.9 | 1246 | 1263.5 | –
323.15 K | 952.7 | 1021.3 | 1085.9 | 1128.1 | 1166.4 | 1196.7 | 1223.8 | – | – | 1277.5
